Results as given in the supplement of paper PMC12009370.
Some of the results follow. Repeats are few or missing, and single values can be far off.

What was measured:
IMR-32 [1] = experiment: drug sensitivity score (DSS), single drug with vehicle (DSS (score)); higher = more cytotoxic; extreme values may be limits of the assay; conditions: 72 h; co-treatment: vehicle (DMSO)
SK-N-AS [2] = experiment: as above; conditions: 72 h; co-treatment: vehicle (DMSO)
SK-N-AS [3] = experiment: drug sensitivity score (DSS) in combination with SL-176 (DSS (score)); higher = more cytotoxic; extreme values may be limits of the assay; conditions: 72 h; co-treatment: SL-176 11.2 uM (IC25 in IMR-32)
IMR-32 [4] = experiment: as above; conditions: 72 h; co-treatment: SL-176 11.2 uM (IC25 in IMR-32)
SK-N-AS [5] = experiment: drug sensitivity score (DSS) in combination with GSK2830371 (DSS (score)); neuroblastoma lines; SL-176 and GSK2830371 are WIP1 inhibitors; higher = more cytotoxic; extreme values may be limits of the assay; conditions: 72 h; co-treatment: GSK2830371 at IC25 in IMR-32
IMR-32 [6] = experiment: as above; conditions: 72 h; co-treatment: GSK2830371 at IC25 in IMR-32
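For drug sensitivity score (DSS) in combination with GSK2830371 in this document: neuroblastoma cells in 384-well plates, each compound at five concentrations, luminescence read-out, DSS derived from fitted concentration-response curve combining IC50 with minimum and maximum inhibition.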
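For drug sensitivity score (DSS) in combination with SL-176 in this document: cells in 384-well plates, luminescence read-out, each screening drug at five concentrations, DSS derived from the fitted concentration-response curve combining IC50 with minimum and maximum inhibition.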
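For drug sensitivity score (DSS), single drug with vehicle in this document: 384-well screen with five concentrations per compound and a luminescence read-out, DSS computed from the fitted dose-response curve combining IC50 with minimum and maximum inhibition.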

SMILES	drug sensitivity score (IMR-32 [1])	drug sensitivity score (SK-N-AS [2])	drug sensitivity score (SK-N-AS [3])	drug sensitivity score (IMR-32 [4])	drug sensitivity score (SK-N-AS [5])	drug sensitivity score (IMR-32 [6])
CCN1C(=O)CNc2ncc(-c3ccc(-c4nc[nH]n4)nc3C)nc21	9.7	8.6	8.8	8.7	9.2	11.5
CNC(=O)CN1CCC(Oc2cc3c(Nc4cccc(Cl)c4F)ncnc3cc2OC)CC1 [Sapitinib]	0	0	0	0	0	0
CNC(=O)c1ccccc1Nc1cc(Nc2ccc(N3CCOCC3)cc2OC)ncc1C(F)(F)F	8.7	10.1	11.4	6.5	11.1	14.9
C[C@@H]1CN(Cc2ccc(F)cc2)[C@@H](C)CN1C(=O)c1cc2c(C(=O)C(=O)N(C)C)cn(C)c2cc1Cl [Talmapimod]	1.6	0	0	1	0	1.8
CC/C(=C(\c1ccccc1)c1ccc(OCCN(C)C)cc1)c1ccccc1 [Tamoxifen]	7.6	3.3	3.8	8	5.1	8
CC(=O)OC[C@H]1O[C@@H]([S-])[C@H](OC(C)=O)[C@@H](OC(C)=O)[C@@H]1OC(C)=O.CCP(CC)CC.[Au+] [Auranofin]	4.9	6.3	7	5.1	5.5	8.4
CC[C@H](NC(=O)[C@H](C)NC)C(=O)N1C[C@@H](O)C[C@H]1Cc1c(-c2[nH]c3cc(F)ccc3c2C[C@@H]2C[C@H](O)CN2C(=O)[C@H](CC)NC(=O)[C@H](C)NC)[nH]c2cc(F)ccc12 [Birinapant]	0	0	0.5	0	0	0
Nc1nc(Nc2ccc3c(c2)CC[C@@H](N2CCCC2)CC3)nn1-c1cc2c(nn1)-c1ccccc1CCC2	5.1	5.6	5.4	5.6	5.5	4.4
Cn1nccc1Nc1nccc(-c2ccn([C@H](CO)c3ccc(Cl)c(F)c3)c(=O)c2)n1 [Ravoxertinib]	5.8	11	11.5	6.5	10.2	16.2
COc1cc([C@@H]2c3cc4c(cc3[C@@H](O[C@@H]3O[C@@H]5CO[C@@H](C)O[C@H]5[C@H](O)[C@H]3O)[C@H]3COC(=O)[C@H]23)OCO4)cc(OC)c1O [Etoposide]	27.7	5.8	4.6	29	6	28.8
O=C(O)CC[C@H]1CC[C@@](c2cc(F)ccc2F)(S(=O)(=O)c2ccc(Cl)cc2)CC1	4.8	0	0	0.6	0	0
Cc1cccc(-c2[nH]c(CNc3ccccc3F)nc2-c2ccc3ncnn3c2)n1	0	0	0	0	0	0
C[C@]12CC[C@H](O)CC1=CC[C@@H]1[C@@H]2CC[C@]2(C)C(c3cccnc3)=CC[C@@H]12 [Abiraterone]	0	1.2	0.7	0	0	1
COc1cc(C(=O)O)ccc1NC(=O)[C@@H]1N[C@@H](CC(C)(C)C)[C@](C#N)(c2ccc(Cl)cc2F)[C@H]1c1cccc(Cl)c1F [Idasanutlin]	25.7	0	3.1	30.9	0.2	35.2
COc1cc(N2CCC(N3CCN(C)CC3)CC2)ccc1Nc1ncc(Cl)c(Nc2ccccc2P(C)(C)=O)n1 [Brigatinib]	0	3.7	4.6	0	3.4	0
O=C1c2c(O)ccc(O)c2C(=O)c2c(NCCNCCO)ccc(NCCNCCO)c21 [Mitoxantrone]	31.3	7.4	7.1	32.2	7.3	31.4
CC1=C2C[C@H]3[C@@H](CC[C@@H]4C[C@H](NS(C)(=O)=O)CC[C@@]43C)[C@@H]2CC[C@@]2(C1)O[C@@H]1C[C@H](C)CN[C@H]1[C@H]2C [Saridegib]	0	0	0.1	3	0	0.9
NC1(c2ccc(-c3nc4ccn5c(=O)[nH]nc5c4cc3-c3ccccc3)cc2)CCC1	2.7	2.9	0.9	1.9	2.1	1.2
COc1cccc2c1c(O)c(C(=O)N(C)c1ccc(C(F)(F)F)cc1)c(=O)n2C [Tasquinimod]	0	0	0	0	0	0
Cc1ccc(Nc2nccc(N(C)c3ccc4c(C)n(C)nc4c3)n2)cc1S(N)(=O)=O [Pazopanib]	2.7	0	0	2.4	0	0.6
Cn1cc(C2=Nc3cc(NC(=O)C(N)C4CCCCC4)cc4c3C2=CNNC4=O)cn1 (stereo unspecified)	24.7	16.6	15.6	20.2	16.8	28
NC(=O)/C(=C/n1cnc(-c2cc(C(F)(F)F)cc(C(F)(F)F)c2)n1)c1cncnc1 [Eltanexor]	34.3	20.9	22.1	34.6	21.6	36.1
CC/C(=C(\c1ccc(O)cc1)c1ccc(OCCN(C)C)cc1)c1ccccc1 [4-hydroxytamoxifen]	6.7	7	7.7	11.5	7.8	10.6
Nc1nc(N)c2nc(-c3cccc(O)c3)c(-c3cccc(O)c3)nc2n1	2	0	0	0	0	0.9
Nc1nc(Cl)nc2c1ncn2[C@H]1C[C@H](O)[C@@H](CO)O1 [Cladribine]	9.1	3.1	2.5	15.9	3.6	15.6
O=C(Nc1ccc2[nH]nc(-c3ccncc3)c2c1)[C@@H]1CCN(CC(=O)N2CCN(c3ccc(-c4ncccn4)cc3)CC2)C1	0.8	22.9	22.5	3.5	23.6	4.7
